Test results taken from patent US20110064751A1 (Hoffmann-La Roche, published 2011).

Key:
[1] = biological target: T1, IL-2 receptor (IL-2R) β/γ heterodimer on effector cells (NK92 cells; human PBMC subsets) (UniProt P14784 27-551; P31785 23-369); assay: cell-based or functional assay
T1 sequence (looked up) 1: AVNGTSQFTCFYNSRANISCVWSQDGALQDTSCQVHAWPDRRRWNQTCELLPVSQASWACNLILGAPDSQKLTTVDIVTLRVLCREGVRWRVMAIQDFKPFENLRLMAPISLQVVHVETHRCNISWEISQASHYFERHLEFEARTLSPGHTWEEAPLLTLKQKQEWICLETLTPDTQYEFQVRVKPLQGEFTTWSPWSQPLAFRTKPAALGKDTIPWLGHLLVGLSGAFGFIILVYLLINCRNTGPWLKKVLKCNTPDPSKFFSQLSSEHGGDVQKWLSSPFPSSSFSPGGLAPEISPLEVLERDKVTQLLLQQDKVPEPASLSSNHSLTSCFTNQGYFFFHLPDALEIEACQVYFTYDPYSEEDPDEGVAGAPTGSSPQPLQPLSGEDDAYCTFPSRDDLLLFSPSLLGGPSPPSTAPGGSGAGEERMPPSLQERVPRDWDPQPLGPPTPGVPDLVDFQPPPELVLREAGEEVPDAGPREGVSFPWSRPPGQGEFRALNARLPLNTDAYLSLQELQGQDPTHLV
T1 sequence (looked up) 2: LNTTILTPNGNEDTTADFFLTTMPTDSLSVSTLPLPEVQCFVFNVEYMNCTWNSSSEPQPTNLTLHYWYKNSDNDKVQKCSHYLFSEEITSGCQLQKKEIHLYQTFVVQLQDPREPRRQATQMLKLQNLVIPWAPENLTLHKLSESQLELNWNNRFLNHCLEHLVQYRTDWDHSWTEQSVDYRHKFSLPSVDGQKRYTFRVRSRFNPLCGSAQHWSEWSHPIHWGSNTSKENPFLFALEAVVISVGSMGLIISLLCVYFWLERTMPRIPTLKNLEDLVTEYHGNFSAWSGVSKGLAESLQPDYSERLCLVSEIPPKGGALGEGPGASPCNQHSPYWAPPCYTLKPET

[2] = biological target: T2, heterodimeric human IL-2 receptor beta/gamma Fc fusion (knob-into-hole construct) (human); assay: SPR (Biacore), receptor immobilized, construct as analyte
T2 construct: also called IL-2R b/g; hu IL-2R bg

[3] = biological target: T3, murine chimeric TNC A2 fusion protein (TNC fn5-A1-A2-A3 domains, A1 and A2 murine) (human; murine, UniProt P24821 984-1071; Q80YX1 1072-1253; P24821 1254-1344, limits assumed, biotinylated); assay: SPR (Biacore), biotinylated antigen on streptavidin chip, construct as analyte, avidity, 1:1 fit
T3 construct: domain: fn5;domain: A1-A2;domain: A3; Expressed in E. coli, immobilized on a streptavidin chip; also called Murine TNC
T3 sequence (looked up): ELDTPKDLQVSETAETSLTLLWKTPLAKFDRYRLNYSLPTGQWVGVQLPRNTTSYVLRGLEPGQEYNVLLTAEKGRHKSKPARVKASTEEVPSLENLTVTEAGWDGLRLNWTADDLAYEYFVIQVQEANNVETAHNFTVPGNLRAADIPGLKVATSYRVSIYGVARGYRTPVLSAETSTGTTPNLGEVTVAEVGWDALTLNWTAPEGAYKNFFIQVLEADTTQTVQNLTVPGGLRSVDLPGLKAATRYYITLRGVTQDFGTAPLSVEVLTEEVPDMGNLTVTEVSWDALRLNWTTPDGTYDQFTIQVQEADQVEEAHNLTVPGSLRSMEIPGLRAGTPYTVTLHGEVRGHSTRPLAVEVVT

[4] = biological target: T4, Cynomolgus chimeric TNC A2 fusion protein (TNC fn5-A1-A2-A3 domains, A1 and A2 cynomolgus) (human; cynomolgus, UniProt P24821 984-1071; P24821 1254-1344, biotinylated); assay: as above
T4 construct: domain: fn5;domain: A1-A2;domain: A3; Expressed in E. coli, immobilized on a streptavidin chip; also called Cynomolgus TNC

[5] = biological target: T5, human chimeric TNC A2 fusion protein (TNC fn5-A1-A2-A3 domains, A1 and A2 human) (human, UniProt P24821 984-1344, limits assumed, biotinylated); assay: as above
T5 construct: domain: fn5-A1-A2-A3; Immobilized on a streptavidin chip; also called Human TNC
T5 sequence (looked up): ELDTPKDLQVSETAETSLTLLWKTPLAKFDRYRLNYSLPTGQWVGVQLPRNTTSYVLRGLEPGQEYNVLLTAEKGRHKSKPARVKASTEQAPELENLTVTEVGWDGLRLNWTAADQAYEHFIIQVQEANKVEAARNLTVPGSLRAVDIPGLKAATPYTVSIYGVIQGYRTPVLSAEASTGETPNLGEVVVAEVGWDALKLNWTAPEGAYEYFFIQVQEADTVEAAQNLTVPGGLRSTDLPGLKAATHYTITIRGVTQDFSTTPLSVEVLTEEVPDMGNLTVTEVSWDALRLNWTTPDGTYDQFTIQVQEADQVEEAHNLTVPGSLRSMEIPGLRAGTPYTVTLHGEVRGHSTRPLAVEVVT

IFN-γ release of NK92 cells, construct in solution [1]: ≥ 10 fold, against IL-2 (Proleukin) | induction of proliferation of NK92 cells (CellTiter Glo), construct bound to coated antigen [1]: ≥ 10 fold, against IL-2 (Proleukin) | Kd [2]: 2.7 nM | Kd [3]: 0.77 nM | Kd [4]: 0.12 nM | Kd [5]: 0.12 nM
B1: 2B10 Fab-IL2-Fab immunoconjugate (other)
chain: QVQLVQSGAEVKKPGSSVKVSCKASGGTFSSYAISWVRQAPGQGLEWMGGIIPIFGTANYAQKFQGRVTITADKSTSTAYMELSSLRSEDTAVYYCARLYGYAYYGAFDYWGQGTTVTVSSASTKGPSVFPLAPSSKSTSGGTAALGCLVKDYFPEPVTVSWNSGALTSGVHTFPAVLQSSGLYSLSSVVTVPSSSLGTQTYICNVNHKPSNTKVDKKVEPKSCDSGGGGSGGGGSGGGG[sequence of about 150 residues omitted]SGGGGSGGGGSGGGGQVQLVQSGAEVKKPGSSVKVSCKASGGTFSSYAISWVRQAPGQGLEWMGGIIPIFGTANYAQKFQGRVTITADKSTSTAYMELSSLRSEDTAVYYCARLYGYAYYGAFDYWGQGTTVTVSSASTKGPSVFPLAPSSKSTSGGTAALGCLVKDYFPEPVTVSWNSGALTSGVHTFPAVLQSSGLYSLSSVVTVPSSSLGTQTYICNVNHKPSNTKVDKKVEPKSCD
light: DIQMTQSPSSLSASVGDRVTITCRASQGIRNDLGWYQQKPGKAPKRLIYAASSLQSGVPSRFSGSGSGTEFTLTISSLQPEDFATYYCLQNGLQPATFGQGTKVEIKRTVAAPSVFIFPPSDEQLKSGTASVVCLLNNFYPREAKVQWKVDNALQSGNSQESVTEQDSKDSTYSLSSTLTLSKADYEKHKVYACEVTHQGLSSPVTKSFNRGEC
notes: also called Fab-IL2-Fab 2B10; SH2B10
